# Experimental data as given in paper PMC4336329 (PLoS ONE, 2015).
# Among all 310,000 compounds or so, about 14,000 (4.5%) showed an effect of 50% or more. The effect is printed as a negative number. This is one part of the list.
# Target: human ether-à-go-go-related gene (hERG) potassium channel (human, UniProt Q12809)
# Test: primary screen, population patch clamp on CHO cells stably expressing hERG
# 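Note: peak tail current of the secondary pulse compared with the same well before compound.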
# human ether-à-go-go-related gene (hERG) potassium channel, sequence (Q12809 whole entry, looked up): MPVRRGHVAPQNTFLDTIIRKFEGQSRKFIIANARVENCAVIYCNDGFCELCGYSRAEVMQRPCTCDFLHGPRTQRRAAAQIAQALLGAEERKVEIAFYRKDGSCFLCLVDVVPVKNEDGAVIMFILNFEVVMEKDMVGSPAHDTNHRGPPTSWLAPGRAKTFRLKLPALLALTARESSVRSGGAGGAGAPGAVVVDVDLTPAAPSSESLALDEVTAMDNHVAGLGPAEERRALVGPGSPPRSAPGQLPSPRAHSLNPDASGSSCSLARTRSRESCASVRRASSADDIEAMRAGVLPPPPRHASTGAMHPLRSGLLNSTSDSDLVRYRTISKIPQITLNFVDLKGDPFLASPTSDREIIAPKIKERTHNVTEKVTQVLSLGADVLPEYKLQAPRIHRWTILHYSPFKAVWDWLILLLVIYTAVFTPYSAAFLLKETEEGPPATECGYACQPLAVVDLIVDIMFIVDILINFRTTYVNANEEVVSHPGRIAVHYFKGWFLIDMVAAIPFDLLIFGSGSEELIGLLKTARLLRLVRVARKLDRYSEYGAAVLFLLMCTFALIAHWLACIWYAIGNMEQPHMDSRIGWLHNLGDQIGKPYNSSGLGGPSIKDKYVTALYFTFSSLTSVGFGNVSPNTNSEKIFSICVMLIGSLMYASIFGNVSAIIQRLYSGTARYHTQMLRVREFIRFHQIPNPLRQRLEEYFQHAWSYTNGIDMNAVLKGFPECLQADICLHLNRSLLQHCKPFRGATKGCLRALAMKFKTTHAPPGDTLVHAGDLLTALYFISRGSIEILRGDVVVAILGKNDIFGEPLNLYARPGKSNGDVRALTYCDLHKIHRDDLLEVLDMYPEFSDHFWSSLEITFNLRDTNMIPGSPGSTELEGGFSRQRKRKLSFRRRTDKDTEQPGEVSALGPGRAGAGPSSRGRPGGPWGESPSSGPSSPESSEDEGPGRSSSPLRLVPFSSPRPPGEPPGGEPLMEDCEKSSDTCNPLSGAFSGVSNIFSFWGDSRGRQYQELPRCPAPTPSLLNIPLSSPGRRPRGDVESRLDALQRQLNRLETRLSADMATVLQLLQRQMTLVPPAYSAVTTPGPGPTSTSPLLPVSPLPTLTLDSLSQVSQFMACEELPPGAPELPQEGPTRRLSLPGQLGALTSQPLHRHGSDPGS
row,SMILES,"hERG current change (%, negative = inhibition) at 10uM"
1,CC(=O)Oc1ccc2oc3c(c2c1)C(=O)CCC3,-5.26%
2,CC(=O)N1CCN(S(=O)(=O)c2ccc(S(=O)(=O)NC3CCCCC3)cc2)CC1,9.1%
3,Cc1nc(Cl)sc1C(=O)Nc1ccc(C(F)(F)F)cc1,5.32%
4,Cc1cnn(C(=O)c2ccccc2Br)c1,-16.1%
5,O=C(CCC(=O)c1ccc(Cl)cc1)OCc1nc2ccsc2c(=O)[nH]1,-16.7%
6,CCCCn1c(N)c(N(CCC(C)C)C(=O)C2CC(=O)N(c3ccc4c(c3)OCCO4)C2)c(=O)[nH]c1=O (stereo not drawn),-5.4%
7,CCCCC(CC)C(=O)Nc1cc(C(=O)NCc2ccc(C)cc2)ccc1N1CCC2(CC1)CC(c1ccccc1)=NO2 (stereo not drawn),2.86%
8,C=CCN(c1ccccc1)S(=O)(=O)c1cccc(C(=O)Nc2nnc(SCC)s2)c1,6.49%
9,CCN(CC)c1ccc(/C=N/n2c(=S)[nH]nc(C)c2=O)cc1,-4.56%
10,CSc1ccccc1-c1nnc(-c2ccc(C)cc2)o1,5.39%
11,Cc1ccc(/C(O)=C2/C(=O)C(=O)N(c3ccccn3)C2c2cccc([N+](=O)[O-])c2)cc1 (stereo not drawn),10.8%
12,Cc1cccc(C(=O)NCc2nnc(SCC(=O)NC3CCCC3)n2C)c1,17.2%
13,CCOC(=O)C1(Cc2cccc(OC)c2)CCN(Cc2ccc(OC)c(OC)c2)CC1,-68.8%
14,CCOC(=O)/C(C#N)=C/Nc1ccccc1OC(F)(F)F,-6.63%
15,O=S1(=O)CC2(N3CCOCC3)CCCCC21 (stereo not drawn),-8.23%
16,CC1=C(C#N)C(c2cccnc2)C2=C(CC(c3ccc(Cl)cc3)CC2=O)N1 (stereo not drawn),-27.2%
17,Cc1nn(C)cc1/C=C/C(=O)c1ccc(O)cc1,13.6%
18,COc1cc(C(=O)Nc2ccc(S(=O)(=O)Nc3ncccn3)cc2)c([N+](=O)[O-])cc1OC,16.9%
19,COC(=O)[C@H]1[C@H]2C[C@@H]3c4[nH]c5cc(OC)ccc5c4CCN3C[C@H]2C[C@@H](OC(=O)c2cc(OC)c(OC)c(OC)c2)[C@@H]1OC,-12.4%
20,O=C(Nc1ccc(Cl)c(Cl)c1)Nc1ccc(Br)cc1F,13.1%
21,C#CCCOC(=O)Nc1ccccc1,7.35%
22,O=C(Nc1ccc(Br)cn1)c1ccc([N+](=O)[O-])o1,-10.7%
23,Cc1ccc(C(=O)N2CCC(C)CC2)cc1C,8.09%
24,COc1ccc(CC(=O)N/N=C/c2ccc(-c3ccc(F)cc3)o2)cc1OC,-5.55%
